# Measurements published in publication PMC4336329 (PLoS ONE, 2015).
# The whole screen tested about 310,000 compounds, of which about 14,000 (4.5%) showed an effect of 50% or more. The effect is printed as a negative number. The list shows a part of the results.
# Target: human ether-à-go-go-related gene (hERG) potassium channel (human, UniProt Q12809)
# Assay: primary screen, population patch clamp on CHO cells stably expressing hERG
# 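Also: peak tail current of the secondary pulse compared with the same well before compound.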
# Sequence of human ether-à-go-go-related gene (hERG) potassium channel (Q12809 whole entry, looked up): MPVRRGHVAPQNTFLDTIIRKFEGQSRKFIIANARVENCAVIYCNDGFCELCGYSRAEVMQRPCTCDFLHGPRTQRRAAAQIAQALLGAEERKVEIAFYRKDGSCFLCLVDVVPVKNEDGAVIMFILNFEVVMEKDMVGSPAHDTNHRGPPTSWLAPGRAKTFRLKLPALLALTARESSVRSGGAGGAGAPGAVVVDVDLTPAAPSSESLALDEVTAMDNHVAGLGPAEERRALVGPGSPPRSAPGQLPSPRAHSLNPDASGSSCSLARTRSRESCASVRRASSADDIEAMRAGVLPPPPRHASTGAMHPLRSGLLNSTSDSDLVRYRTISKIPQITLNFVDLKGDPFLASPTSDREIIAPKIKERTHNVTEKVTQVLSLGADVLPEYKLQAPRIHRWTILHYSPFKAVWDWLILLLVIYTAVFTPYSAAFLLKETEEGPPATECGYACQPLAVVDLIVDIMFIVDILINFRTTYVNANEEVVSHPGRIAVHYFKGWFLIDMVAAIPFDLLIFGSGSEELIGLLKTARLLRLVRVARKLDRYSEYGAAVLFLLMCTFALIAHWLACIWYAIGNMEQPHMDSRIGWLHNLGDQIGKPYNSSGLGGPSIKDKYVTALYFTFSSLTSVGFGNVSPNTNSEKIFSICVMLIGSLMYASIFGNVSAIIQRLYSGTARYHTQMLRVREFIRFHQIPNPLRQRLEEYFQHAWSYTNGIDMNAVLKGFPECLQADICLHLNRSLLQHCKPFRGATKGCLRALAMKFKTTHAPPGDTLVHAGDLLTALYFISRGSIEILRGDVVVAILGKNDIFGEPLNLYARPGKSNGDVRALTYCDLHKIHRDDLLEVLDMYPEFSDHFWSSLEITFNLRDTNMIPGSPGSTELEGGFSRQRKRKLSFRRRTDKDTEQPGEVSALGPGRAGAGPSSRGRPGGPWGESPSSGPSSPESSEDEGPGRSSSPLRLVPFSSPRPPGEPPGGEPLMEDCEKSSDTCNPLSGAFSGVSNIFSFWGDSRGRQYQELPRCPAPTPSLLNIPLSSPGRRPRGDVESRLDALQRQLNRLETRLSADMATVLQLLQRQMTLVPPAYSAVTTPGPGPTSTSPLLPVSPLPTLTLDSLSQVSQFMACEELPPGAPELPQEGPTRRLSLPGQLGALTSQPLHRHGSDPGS
row,Structure (SMILES),"hERG current change (%, negative = inhibition) at 10uM"
1,CCc1nn2c(=O)c(S(=O)(=O)Nc3ccc(C(C)C)cc3)c(C)nc2s1,-7.64%
2,Cc1onc(-c2ccccc2Cl)c1C(=O)NNC(=O)c1cccc(F)c1,1.37%
3,C=CCn1c(N)c(C(=O)Nc2ccccc2)c2nc3ccccc3nc21,16.7%
4,Cn1c(CNC(=O)c2ccccc2F)nnc1SCc1ccc(Cl)cc1,-33.4%
5,Cc1nonc1C(=O)N/N=C/c1ccc([N+](=O)[O-])o1,-4.8%
6,COc1ccc(/C(C)=N/NC(=O)CNC(=O)/C=C/c2ccccc2OC)cc1,-24.7%
7,CCOc1ccccc1CNS(=O)(=O)c1cnc[nH]1,16.3%
8,CC(=O)N1CCC(=NNc2ccc(S(=O)(=O)N3CCOCC3)cc2[N+](=O)[O-])CC1,-18.2%
9,Cc1ccc2nc(NC(=O)COC(=O)c3ccc(Br)o3)sc2c1,-1.31%
10,O=C(N/N=C/C(Cl)=C/c1ccccc1)c1ccccc1F,6.59%
11,O=C(CCCN1C(=O)/C(=C\c2ccccc2)SC1=S)Nc1ccc(O)cc1C(=O)O,18.1%
12,Cc1cc(NC(=S)NC(=O)C2CC2)ccc1Br,9.92%
13,CCCCCN1CSC(=S)N(Cc2ccccc2)C1,8.69%
14,CCN(CC(=O)Nc1ccc2c(c1)OCO2)CC(=O)Nc1ccccc1C(F)(F)F,-14.4%
15,Cc1ncc(CN2CCCC(C(=O)Nc3ccc(-c4ccco4)cc3)C2)n1C (stereo not drawn),-59.6%
16,CC1CCN(S(=O)(=O)c2cc3c4c(c2)CCN4C(=O)CC3)CC1,-19.3%
17,c1csc(-c2nc(N3CCOCC3)c3ccccc3n2)c1,-10.1%
18,CCCOc1ccc(Oc2nc(-c3ccncc3)nc3ccccc23)cc1,-0.829%
19,COc1ccccc1N(CC(=O)Nc1ccc2c(c1)OCCO2)S(C)(=O)=O,-1.7%
20,O=C(Cc1ccc([N+](=O)[O-])cc1)NNC(=O)c1cccs1,-8.27%
21,CS(=O)(=O)N(CC(=O)Nc1ccc(F)c(F)c1)c1cccc([N+](=O)[O-])c1,-46.6%
22,COc1ccc(Cl)cc1NC(=O)CSc1nc(N2CCCCC2)nc(N2CCCCC2)n1,13.3%
23,Cn1c(SCC(=O)OC2CCCCC2)nnc1-c1ccco1,0.11%

row,Structure (SMILES),"hERG current change (%, negative = inhibition) at 10uM"
1,C/C=C/COC(=O)C1=C(C)NC(=O)NC1c1ccc2c(c1)OCO2 (stereo not drawn),7.01%
2,COc1ccc(N2CC(C(=O)NCc3ccccc3)CC2=O)cc1 (stereo not drawn),3.67%
3,Cc1c(NC(=O)CSc2ncn[nH]2)c(=O)n(-c2ccccc2)n1C,24.4%
4,C=CCN(c1ccccc1)S(=O)(=O)c1cc2c(cc1C)NC(=O)CO2,-17.6%
5,CCOc1cccc(-c2c(C(=O)N/N=C/c3c(F)cccc3Cl)nnn2-c2nonc2N)c1,6.72%
6,O=P(Nc1cccc(F)c1)(Oc1ccccc1F)Oc1ccccc1F,4.58%
7,C#CCn1ccc(O)c(Cc2c(F)cccc2Cl)c1=O,8.2%
8,O=c1cc(CSc2nnc(COc3ccccc3)n2-c2ccccc2)c2ccccc2[nH]1,-14.6%
9,COCCCNC(=O)C(=O)NC1CCCCCC1,13.8%
10,COc1ccc(-c2nc(CSCC(=O)NCc3ccco3)c(C)o2)cc1,-3.31%
11,COc1ccc(C(CNC(=O)COc2ccccc2OC)N(C)C)cc1OC (stereo not drawn),4.82%
12,Brc1c(CSc2nncn2-c2ccccc2)nc2sccn12,7.63%
13,Clc1ccc(CSc2nc3ccncc3[nH]2)cc1,-6.8%
14,CC(C)(Oc1ccc(Cl)cc1)C(=O)NCC(c1cccs1)N1CCOCC1 (stereo not drawn),-5.84%
15,C=C(C)CN(CC)C(=O)CC1C(=O)NCCN1CC(C)(C)C (stereo not drawn),1.9%
16,O=C(/C=C/c1cccnc1)c1ccccc1O,2.4%
17,COc1ccc(C(CNC(=O)CCNC(=O)c2ccccc2Cl)N2CCCC2)cc1 (stereo not drawn),6.42%
18,CSc1sc(C(=O)NCC2CC2)c2c1S(=O)(=O)N(C)c1ccccc1-2,10.2%
19,Cc1cc(C)n2nc(C(=O)NNC(=O)c3ccc(Cl)cc3)nc2n1,-15.2%
20,NS(=O)(=O)c1cccc(NC(=O)/C=C/c2cccs2)c1,4.08%
21,CCOC(=O)C1CCCCN1C(=O)CCc1c(C)nc2ncnn2c1C (stereo not drawn),1.42%
22,Cc1ccc(NC(=O)Cc2nnc(SCC(=O)NC3=NCCS3)n2C)cc1,12.4%
23,COc1cccc(C2=NN(C(=O)c3ccco3)C(c3ccco3)C2)c1 (stereo not drawn),-23.8%

row,Structure (SMILES),"hERG current change (%, negative = inhibition) at 10uM"
1,CC(C)C[C@H](NC(=O)Nc1cccc(C(F)(F)F)c1)C(=O)O,2.53%
2,CCC(=O)NC(c1ccc(OC)cc1)c1cc(Cl)c2cccnc2c1O (stereo not drawn),31.8%
3,COc1ccc(/C=N/N2CCN(C)CC2)cc1OC,7.33%
4,COc1ccc(CCC(=O)Nc2c(C)n(C)n(-c3ccccc3)c2=O)cc1,23.7%
5,c1coc(-c2nnc3sc(Cc4cccs4)nn23)c1,-22.9%
6,O=C(COC(=O)c1cnccn1)NCc1ccccc1,12.3%
7,COCCNC(=O)C1CCCN(S(=O)(=O)c2ccc3c(c2)CC(C)N3C(=O)C2CC2)C1 (stereo not drawn),-8.97%
8,CCN(CC)CCC(c1ccc2c(c1)OCO2)c1c(O)cc(OC)cc1OC (stereo not drawn),-73.4%
9,CCn1cc(CCCC(=O)NCc2ccc(OC)cc2)c2ccccc21,1.54%
10,CCOC(=O)c1c[nH]c(=O)c(Br)c1O,17.4%
11,Cc1cccc(OCC(=O)Nc2ccc(C(=O)NCC(C)C)cc2)c1,-0.384%
12,CCOC(=O)c1ccc(N2C(=O)c3n[nH]c(C)c3C2c2ccccn2)cc1 (stereo not drawn),-8.28%
13,CCC(C)(C(=O)NC1CCCC1)N(C(=O)CC1NC(=O)NC1=O)c1ccc(C)cc1 (stereo not drawn),3.09%
14,CC(OC(=O)c1nc(Cl)ccc1Cl)C(=O)NC1CCCCC1C (stereo not drawn),13.8%
15,O=C(CSc1ccccc1)N1CCCC(N2CCN(c3ccc(F)cc3)CC2)C1 (stereo not drawn),-75.3%
16,COc1ccc(Cl)cc1NC(=O)Cc1c(F)cccc1Cl,6%
17,CC(C)C(=O)Nc1nnc(SCC(=O)N2c3ccccc3CC2C)s1 (stereo not drawn),5.13%
18,Cc1ccc(-n2c(SCC(=O)OC(C)C)nnc2-c2cnccn2)cc1,0.436%
19,Cc1ccc(C)c(OCCC(=O)Nc2cccc(S(=O)(=O)N3CCCCC3)c2)c1,-24.3%
20,CCC(C)NC(=O)NCc1ccccc1F (stereo not drawn),14%
21,COC(=O)C1=C(C)N(Cc2ccccc2)C(=NCc2ccccc2)N[C@H]1c1cccc(F)c1,-11.5%
22,COc1cc2cc(C(c3nnnn3C3CCCCC3)N(C)C3CCCCC3)c(=O)[nH]c2cc1OC (stereo not drawn),-21.7%
23,O=C(O)C1=C[C@H](c2coc3ccccc3c2=O)C[C@H](OCCCCO)O1,3.91%

row,Structure (SMILES),"hERG current change (%, negative = inhibition) at 10uM"
1,Cc1onc(-c2ccccc2)c1C(=O)n1nnc2ccccc21,8.17%
2,CS(=O)(=O)c1nc(S(=O)(=O)c2ccc(Cl)cc2)c(NCCCN2CCOCC2)s1,-46.8%
3,O=C(CS(=O)(=O)Cc1ccccc1)Nc1ncccn1,11.3%
4,O=C(CCCCCN1C(=O)c2ccccc2C1=O)Nc1nccs1,-7.89%
5,CCN(CC)S(=O)(=O)c1ccc(C(=O)N2CCCCC2)cc1,26.7%
6,CC1C(=O)Nc2ccccc2N1C(=O)c1ccccc1 (stereo not drawn),11.5%
7,COc1ccc(-c2ccc(-c3noc(-c4cccs4)n3)c(OC)n2)cc1,3.26%
8,CC#CC[N+](C)(C)CCCCCCCCCC.[Br-],-48.8%
9,Cc1oc(-c2ccoc2)nc1CN(CC1CCC(=O)N1)C(C)C (stereo not drawn),31.4%
10,COc1ccc(CNC(=O)C(c2ccco2)N(C(=O)c2snc(C(N)=O)c2N)c2cccc(OC)c2)cc1 (stereo not drawn),5.93%
11,COc1ccc(N2CCN(C(=O)NC(=O)c3ccccc3)CC2)cc1,4.85%
12,O=C(Nc1cc(C(=O)N2CCCC2)ccc1N1CCCC1)c1ccccc1,-75.6%
13,COc1ccccc1NC(=O)Cc1ccsc1,10.3%
14,COc1ccc(CCNC(=S)NCCc2ccc(OC)c(OC)c2)cc1OC,5.11%
15,Cc1c(/C(O)=C2\C(=O)C(=O)N(CCN(C)C)C2c2cccnc2)cnn1-c1ccccc1 (stereo not drawn),-3.57%
16,COc1ccc(NC(=O)Nc2ccccc2SC)cc1OC,6.08%
17,CN1CCN(c2c(F)cc3c(=O)c(C(=O)[O-])cn4c3c2OCN4C)CC1,23.8%
18,COc1ccc(OCc2cc(C(=O)N(C)CC3CCCCO3)no2)c(Cl)c1 (stereo not drawn),-17.4%
19,COc1ccccc1NS(=O)(=O)c1cc(NC(=O)CN2C(=O)NC3(CCCC3)C2=O)ccc1C,-11.6%
20,COC(=O)c1ccccc1NC(=O)C1CCCC1,-12.5%
21,CC(=O)c1c(N2CCN(Cc3ccccc3)CC2)nc(=S)n(-c2ccccc2)c1C,4.37%
